Test results from PubChem BioAssay AID2675 (National Center for Advancing Translational Sciences (NCATS), 2010).
Screen size: about 280,000 compounds; about 100 (0.036%) were called active. Inconclusive results, whose numbers are uncertain, are shown with a selection of clear calls. Calls come from the whole dose curve; as a rule, active = well fitted inhibition curve with a large enough effect in the signal ratio, with a control signal flat (not every such curve was filed as active); inconclusive = small, poorly fitted or top-dose-only effect, or effect the other way, or a change in a side signal; inactive = no such curve, though single readings can be large or run the other way; the % refers to the signal ratio. Potencies beside an inconclusive call are fits to weak or partial responses and may not hold up. “Side channel” marks fits to a control or component signal instead of the main read-out.

Target: Muscleblind-like protein 1 (Homo sapiens) (UniProt Q9NR56)
Sequence of UniProt Q9NR56 (Q9NR56 whole entry, looked up): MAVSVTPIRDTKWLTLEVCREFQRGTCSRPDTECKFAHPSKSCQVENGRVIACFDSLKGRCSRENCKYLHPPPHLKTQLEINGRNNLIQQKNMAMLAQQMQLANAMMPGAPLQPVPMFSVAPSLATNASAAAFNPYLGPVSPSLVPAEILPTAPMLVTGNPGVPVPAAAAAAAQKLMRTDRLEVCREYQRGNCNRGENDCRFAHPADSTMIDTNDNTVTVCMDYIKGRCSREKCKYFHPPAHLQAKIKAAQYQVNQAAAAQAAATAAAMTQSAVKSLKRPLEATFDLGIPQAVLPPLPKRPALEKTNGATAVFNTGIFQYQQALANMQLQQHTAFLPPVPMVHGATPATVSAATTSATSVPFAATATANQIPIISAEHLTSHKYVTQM
Test: qHTS Assay for Inhibitors of MBNL1-poly(CUG) RNA binding
Conditions: TR-FRET MBNL1-His/biotin-(CUG)12 binding, 665/545 ratio; activity change, negative = inhibition: at 57.5 µM (top of the series)
Summary of the method: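 MBNL1-His + Biotin-(CUG)12, cpd titration 92 nM–58 uM; Tb anti-His Ab 0.055 ng/ul, SA-XL665 5 nM (final); 60 min RT; ratiometric 665/545 nm, Ex 340 nm; normalized to buffer and full-complex controls.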
% is set by controls: 0 for no effect and ±100 for the full control effect; potency is the fitted concentration of half-maximal effect; tags give direction and shape of the fitted curve or compound fluorescence and quenching.

| SMILES | activity change, negative = inhibition | Potency |
| --- | --- | --- |
| COc1cccc(CN(C)C(=O)c2ccccc2Sc2ccccc2C#N)c1 | inactive: -0.3% | – |
| COc1ccc2oc(=O)c(C(=O)Nc3cccc(C(C)=O)c3)cc2c1 | – | inconclusive: 8.91 µM [quencher, side channel, partial curve] |
| Cc1ccccc1-n1c(SCc2csc(Nc3ccccc3)n2)nnc1-c1cccnc1 | inactive: 2.25% | – |
| COc1cccc(CC(=O)OCC(=O)NNC(=O)c2ccc([N+](=O)[O-])cc2)c1 | – | inconclusive: 15.8 µM [quencher, side channel, partial curve] |
| O=C(Cn1ncc2c(=O)oc3ccccc3c21)N1CCC(N2CCCCC2)CC1 | – | inconclusive: 4.47 µM [quencher, side channel, single point] |
| COc1ccc2c(c1OC)C(=O)N(c1ccc(O)cc1)C2=O | – | inconclusive: 5.62 µM [quencher, side channel, partial curve] |
| COc1ccc(CN2C(=O)c3cccnc3C2=O)cc1S(=O)(=O)NCc1ccc(C)o1 | – | inconclusive: 12.6 µM [quencher, side channel, partial curve] |
| CCc1nc2ccc(C(=O)N3CCN(c4cccc(OC)c4)CC3)cc2nc1CC | inactive: 5.78% | – |
| CN(CCO)c1ccc(/C=N/Nc2nncc3ccccc23)cc1 | – | inconclusive: 35.5 µM [quencher, side channel, single point] |
| O=C(O)CCCN1C(=O)c2ccc(C(=O)c3cccc([N+](=O)[O-])c3)cc2C1=O | – | inconclusive: 7.94 µM [quencher, side channel, partial curve] |
| O=[N+]([O-])c1cccc(OCC(O)CN2CCN(S(=O)(=O)c3cc(Cl)ccc3Cl)CC2)c1 (stereo not drawn) | – | inconclusive: 28.2 µM [quencher, side channel, single point] |
| CC(=O)Nc1ccc(Nc2nc(-c3sc(NC(C)=O)nc3C)cs2)cc1 | – | inconclusive: 15.8 µM [quencher, partial curve] |
| O=C(Nc1ccc(O)cc1C(=O)O)c1ccc2c(c1)C(=O)N(Cc1ccco1)C2=O | – | inconclusive: 28.2 µM [quencher, side channel, partial curve] |
| CC(=O)N1C(c2ccccc2O)C[C@]2(C)CC(=O)NC12 (stereo partly drawn) | inactive: -5.27% | – |
| O=c1c(-c2ccc([N+](=O)[O-])cc2)coc2c(O)c(O)ccc12 | – | inconclusive: 11.2 µM [quencher, side channel, partial curve] |
| COc1ccccc1NC(=O)C(=O)c1cn(CC(=O)N2CCCC2)c2ccccc12 | – | inconclusive: 28.2 µM [quencher, side channel, single point] |
| COc1ccc(NC(=O)COC(=O)c2ccco2)c([N+](=O)[O-])c1 | – | inconclusive: 3.55 µM [quencher, side channel, full curve, poor fit] |
| O=c1c2[nH]c3ccccc3c2ncn1Cc1ccncc1 | inactive: -2.11% | – |
| NC(=O)c1nnn(-c2nonc2N)c1-c1ccc([N+](=O)[O-])cc1 | – | inconclusive: 7.94 µM [quencher, side channel, partial curve] |
| CCOC(=O)c1cc2c(=O)n3ccccc3nc2n(C(C)C)c1=NC(=O)c1ccncc1 | – | inconclusive: 14.1 µM [quencher, partial curve] |
| Cc1cc2oc(=O)c(CC(=O)NCCCN(C)C)c(C)c2c2occ(C(C)(C)C)c12 | – | inconclusive: 8.91 µM [quencher, side channel, full curve] |

| SMILES | activity change, negative = inhibition | Potency |
| --- | --- | --- |
| CCOC(=O)C1CCCN(C2=NC(=O)/C(=C/c3ccc(O)c(OCC)c3)S2)C1 (stereo not drawn) | – | inconclusive: 15.8 µM [quencher, side channel, partial curve] |
| Cn1cnc([N+](=O)[O-])c1Nc1cccc(O)c1 | – | inconclusive: 28.2 µM [quencher, side channel, partial curve] |
| COc1ccc(S(=O)(=O)NCc2csc(C)n2)cc1OC | inactive: -3.27% | – |
| O=C(CCCC(=O)N(CC(=O)NC1CCCCC1)c1cccc(F)c1)Nc1ccccn1 | inactive: -2.78% | – |
| CC(C)N(C(=O)c1sc2cc([N+](=O)[O-])ccc2c1Cl)C(C)C | – | inconclusive: 14.1 µM [quencher, side channel, partial curve] |
| COc1cc2[nH]c(=S)nc(NCCc3ccc(S(N)(=O)=O)cc3)c2cc1OC | inactive: -1.03% | – |
| Fc1cccc(/C=N/Nc2ncnc3nc[nH]c23)c1 | – | inconclusive: 22.4 µM [quencher, side channel, single point] |
| COc1ccc(CCNCc2c(-c3ccccc3)n(C)c3ccccc23)cc1 | inactive: -10.3% | – |
| O=C(Nc1nc(=O)c2ccccc2s1)c1ccccc1 | – | inconclusive: 39.8 µM [fluorescent, side channel, single point] |
| CCC(C)c1ccc(NC(=O)COc2c(F)c(F)c(C(F)(F)F)c(F)c2F)cc1 (stereo not drawn) | – | inconclusive: 12.6 µM [fluorescent, side channel, partial curve] |
| CCOC(=O)CCCCC(=O)c1[nH]c(=O)[nH]c1CSCCO | – | active: 3.55 µM |
| O=[N+]([O-])c1ccc(O)c(/C=N/Nc2ccccn2)c1 | inactive: 1.53% | – |
| O=C(CN1C(=O)CCC1=O)Nc1nc(-c2ccc3ccccc3c2)cs1 | inactive: 15.6% | – |
| COc1cc(C(C(=O)NC2CCCC2)N(Cc2ccccc2)C(=O)c2snc(C(N)=O)c2N)ccc1O (stereo not drawn) | – | inconclusive: 22.4 µM [quencher, side channel, partial curve] |
| O=C(NC1CCCCC1)c1cccs1 | inactive: -24.3% | – |
| Cc1ccc(C(O)(C(=O)NNc2ccccn2)c2ccc(C)cc2)cc1 | inactive: -1.3% | – |
| O=C(CNC1CCCCC1)Nc1ccc([N+](=O)[O-])cc1C(=O)Nc1ccccc1F | – | inconclusive: 17.8 µM [quencher, side channel, partial curve] |
| CCO/N=C(\C)c1c(O)c(CC)c(-c2ccccc2)n(-c2ccccc2)c1=O | – | inconclusive: 39.8 µM [quencher, side channel, single point] |
| Cc1ccc(-c2cc(C(F)(F)F)c(C#N)c(SCCC#N)n2)o1 | inactive: 18.2% | – |
| Cc1cc(C)n2nc(S(=O)(=O)N(C)c3ccccc3)nc2n1 | – | inconclusive: 7.08 µM [quencher, side channel, single point] |
| Cc1cc(C(=O)Nn2c(-c3ccncc3)nc3ccccc3c2=O)ccc1[N+](=O)[O-] | – | inconclusive: 28.2 µM [quencher, side channel, partial curve] |

| SMILES | activity change, negative = inhibition | Potency |
| --- | --- | --- |
| O=C(NNc1cccc([N+](=O)[O-])c1)/C(=C\c1cccnc1)NC(=O)c1ccccc1 | – | inconclusive: 14.1 µM [quencher, side channel, partial curve] |
| Clc1cccc(CSc2nccn2-c2ccccc2)c1 | inactive: -7.63% | – |
| Cn1cc(C(=O)CCl)c2ccccc21 | inactive: 3.41% | – |
| OC(COc1ccc(Cl)cc1)CN1CCC(Cc2ccccc2)CC1 (stereo not drawn) | inactive: -3.35% | – |
| O=C(COc1nnnc2ccccc12)N1CCCc2ccccc21 | – | inconclusive: 28.2 µM [quencher, single point] |
| Cc1cc(C)c(C)c(S(=O)(=O)N[C@@H](C)C(=O)OCc2cc(=O)n3cc(Br)ccc3n2)c1C | – | inconclusive: 15.8 µM [quencher, side channel, partial curve] |
| CCN(CC)CCCNC(=O)CN1C(=O)CSc2ccc(S(=O)(=O)N3CCOCC3)cc21 | – | inconclusive: 39.8 µM [fluorescent, single point] |
| O=C(NCCCN1CCOCC1)c1ccccc1NS(=O)(=O)c1cc([N+](=O)[O-])ccc1Cl | – | inconclusive: 10 µM [quencher, partial curve] |
| C/C=C(\C)C(=O)Nc1cccc(C2=NOC3(C2)C[C@@H](C(N)=O)N(C(=O)c2cc([N+](=O)[O-])cc([N+](=O)[O-])c2C)C3)c1 (stereo partly drawn) | – | inconclusive: 14.1 µM [quencher, partial curve] |
| OCCNCc1ccc(-c2ccccc2)cc1 | – | inconclusive: 0.355 µM [fluorescent, side channel, partial curve] |
| COc1ccccc1-c1cc(N)n(S(=O)(=O)c2cccc3nsnc23)n1 | – | inconclusive: 12.6 µM [quencher, side channel, partial curve] |
| Cc1cc(NCCCN2CCOCC2)n2c(nc3ccccc32)c1C#N | inactive: 9.46% | – |
| CC(=O)c1ccc(-n2cc(-c3ccc(C(C)(C)C)cc3)[n+]3c2SCCC3)cc1 | inactive: -3.12% | – |
| O=C(O)CN1C(=O)c2ccc(Oc3ccc([N+](=O)[O-])cc3)cc2C1=O | – | inconclusive: 15.8 µM [quencher, partial curve] |
| CS(=O)(=O)N(CC(=O)N/N=C/c1cc([N+](=O)[O-])ccc1Cl)c1ccccc1 | – | inconclusive: 2.24 µM [quencher, side channel, full curve, poor fit] |
| O=C1c2ccccc2NC(c2ccc3c(c2)OCCO3)N1c1ccc2c(c1)OCCO2 (stereo not drawn) | inactive: -2.04% | – |
| Cc1cc(C)c(OCCN(C)Cc2ccccc2)c(Br)c1 | inactive: -2.72% | – |
| CSc1ccc(/C=C2\CCn3c2nc2cc(C(=O)O)ccc2c3=O)cc1 | – | inconclusive: 14.1 µM [quencher, partial curve] |
| CN(CC(=O)Nc1cccc(F)c1)CC(=O)Nc1ccccc1[N+](=O)[O-] | – | inconclusive: 14.1 µM [quencher, side channel, partial curve] |
| Cc1nc2ccccc2c(=O)n1NC(=O)c1ccccc1[N+](=O)[O-] | – | inconclusive: 14.1 µM [quencher, side channel, partial curve] |
| O=c1[nH]c2ccccc2cc1CN(Cc1cccnc1)S(=O)(=O)c1ccc([N+](=O)[O-])cc1 | – | inconclusive: 11.2 µM [quencher, partial curve] |
